Tests used:
Assay in all cases: ELISA on plate-coated recombinant B7 family proteins (1 ug/ml)
[1] = target: T1, B7-1 (Sino Biological, Cat #: 10698-H08H) (human, UniProt P33681 35-242)
T1 construct: extracellular domain; Bought
T1 sequence (looked up): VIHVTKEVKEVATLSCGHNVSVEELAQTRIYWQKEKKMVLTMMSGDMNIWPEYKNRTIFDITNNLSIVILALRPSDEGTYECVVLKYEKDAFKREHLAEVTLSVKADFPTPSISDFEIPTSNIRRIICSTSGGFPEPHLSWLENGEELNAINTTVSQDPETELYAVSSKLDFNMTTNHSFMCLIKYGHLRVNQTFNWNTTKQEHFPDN
Method: (§1) Specifically, after diluting the recombinant human B7 family proteins at a concentration of 1 µg/ml and putting them in a 96-well plate (Nunc-Immuno Plates, NUNC) in 100 µl per well, it was reacted at 4° C. for 16 hrs for coating. The recombinant proteins used in Example 1 was used.
(§2) Then, after removing proteins and washing it with PBST, 200 µl of PBS buffer comprising 1% BSA (bovine serum albumin) was put per well and it was reacted at 37° C. for 2 hrs to block non-specific binding. Then, after diluting the anti-B7-H3 antibodies prepared in Example 2 in 10 µg/ml on a 96-well plate, 100 µl was put per well and it was reacted at 37° C. for 1 hr. Then after it was washed with PBST. In order to detect antibodies bound to an antigen, HRP-connected anti-human IgG F(ab')2 antibody (Goat anti-Human IgG F(ab')2 Cross-Adsorbed Secondary Antibody, HRP, Pierce, 31414) was diluted in PBS comprising 1% bovine serum albumin (BSA) by 1:10,000. 100 µl was put per well and it was reacted at 37° C. for about 1 hr. After washing it with PBST again, TMB (Tetramethylbenzidine, Sigma, T0440) 100 µl was put to develop color. After reacting it at RT for 5-10 min, 50 µl of H_2SO_4 was put to finish the reaction, and the absorbance at 450 nm and 650 nm was measured by using a micro plate reader (molecular device).

[2] = target: T2, B7-DC (Sino Biological, Cat #: 10292-H08H) (human, UniProt Q9BQ51 20-220)
T2 construct: extracellular domain; Bought
T2 sequence (looked up): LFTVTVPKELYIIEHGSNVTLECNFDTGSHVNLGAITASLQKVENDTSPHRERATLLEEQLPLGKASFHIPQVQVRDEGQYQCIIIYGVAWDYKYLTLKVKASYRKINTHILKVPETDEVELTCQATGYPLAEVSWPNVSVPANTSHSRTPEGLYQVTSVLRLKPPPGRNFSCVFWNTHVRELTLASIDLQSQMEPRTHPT
Method: as §1, §2

[3] = target: T3, B7-H1 (Sino Biological, Cat #: 10084-H08H) (human, UniProt Q9NZQ7 in part)
T3 construct: extracellular domain; Bought
Method: as §1, §2

[4] = target: T4, B7-H4 (Sino Biological, Cat #: 10738-H08H) (human, UniProt Q7Z7D3 25-259)
T4 construct: extracellular domain; Bought
T4 sequence (looked up): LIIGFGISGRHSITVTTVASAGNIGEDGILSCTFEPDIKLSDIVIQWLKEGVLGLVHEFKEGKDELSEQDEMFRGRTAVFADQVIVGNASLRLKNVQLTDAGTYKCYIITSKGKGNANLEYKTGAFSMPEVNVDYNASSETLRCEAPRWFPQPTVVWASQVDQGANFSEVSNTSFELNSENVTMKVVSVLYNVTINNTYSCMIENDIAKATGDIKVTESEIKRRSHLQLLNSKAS
Method: as §1, §2

[5] = target: T5, B7-H5 (Sino Biological, Cat #: 13482-H08H) (human, UniProt Q9H7M9 33-194)
T5 construct: extracellular domain; Bought
T5 sequence (looked up): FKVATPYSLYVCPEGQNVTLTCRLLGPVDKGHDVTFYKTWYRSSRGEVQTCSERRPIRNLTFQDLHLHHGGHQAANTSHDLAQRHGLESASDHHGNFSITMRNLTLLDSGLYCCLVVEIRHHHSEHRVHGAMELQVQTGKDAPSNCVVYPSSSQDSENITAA
Method: as §1, §2

[6] = target: T6, B7-H6 (Sino Biological, Cat #: 16140-H08H) (human, UniProt Q68D85 25-262)
T6 construct: extracellular domain; Bought
T6 sequence (looked up): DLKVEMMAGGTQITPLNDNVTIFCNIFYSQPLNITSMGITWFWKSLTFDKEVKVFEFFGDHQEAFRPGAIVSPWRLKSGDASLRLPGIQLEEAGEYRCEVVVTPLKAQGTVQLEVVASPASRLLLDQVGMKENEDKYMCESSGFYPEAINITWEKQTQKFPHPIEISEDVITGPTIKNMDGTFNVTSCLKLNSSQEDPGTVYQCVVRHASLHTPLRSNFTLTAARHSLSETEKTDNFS
Method: as §1, §2

[7] = target: T7, B7-H7 (Sino Biological, Cat #: 16139-H02H) (human, UniProt Q9UM44 23-344)
T7 construct: extracellular domain; Bought
T7 sequence (looked up): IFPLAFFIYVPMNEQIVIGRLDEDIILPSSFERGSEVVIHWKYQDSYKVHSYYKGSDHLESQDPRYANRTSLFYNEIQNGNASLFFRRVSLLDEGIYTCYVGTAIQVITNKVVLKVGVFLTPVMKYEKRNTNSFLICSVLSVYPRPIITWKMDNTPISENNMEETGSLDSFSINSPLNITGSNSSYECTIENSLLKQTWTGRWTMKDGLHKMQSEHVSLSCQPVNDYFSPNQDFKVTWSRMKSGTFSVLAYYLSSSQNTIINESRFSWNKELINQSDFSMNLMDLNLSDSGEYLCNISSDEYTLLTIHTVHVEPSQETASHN
Method: as §1, §2

Measured: binding result

T3 sequence (Q9NZQ7 19-238): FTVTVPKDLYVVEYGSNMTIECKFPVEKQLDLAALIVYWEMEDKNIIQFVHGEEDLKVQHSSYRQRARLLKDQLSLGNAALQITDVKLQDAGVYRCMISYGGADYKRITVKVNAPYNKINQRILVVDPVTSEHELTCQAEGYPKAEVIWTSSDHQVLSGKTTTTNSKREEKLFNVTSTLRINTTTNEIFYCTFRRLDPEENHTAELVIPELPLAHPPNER

B1: anti-B7-H3 antibody D8G (full IgG form) (antibody)
heavy: EVQLLESGGGLVQPGGSLRLSCAASGFTFSSYSMSWVRQAPGKGLEWVSGIYSDGSNTYYADSVKGRFTISRDNSKNTLYLQMNSLRAEDTAVYYCAKMLHRFDYWGQGTLVTVSS[human IgG1 constant region not shown]
light: QSVLTQPPSASGTPGQRVTISCSGSSSNIGSNSVTWYQQLPGTAPKLLIYADSQRPSGVPDRFSGSKSGTSASLAISGLRSEDEADYYCGTWDSSLNAYVFGGGTKLTVLGQPKAAPSVTLFPPSSEELQANKATLVCLISDFYPGAVTVAWKADSSPVKAGVETTTPSKQSNNKYAASSYLSLTPEQWKSHRSYSCQVTHEGSTVEKTVAPAECS
no binding: [1] | [2] | [3] | [4] | [5] | [6] | [7]

B2: anti-B7-H3 antibody 10F11 (full IgG form) (antibody)
heavy: EVQLLESGGGLVQPGGSLRLSCAASGFTFSSYGMSWVRQAPGKGLEWVSGIYSGGSSKYYADSVKGRFTISRDNSKNTLYLQMNSLRAEDTAVYYCAKNRLRFDYWGQGTLVTVSS[human IgG1 constant region not shown]
light: QSVLTQPPSASGTPGQRVTISCTGSSSNIGSNSVTWYQQLPGTAPKLLIYSDSHRPSGVPDRFSGSKSGTSASLAISGLRSEDEADYYCGTWDASLNAYVFGGGTKLTVLGQPKAAPSVTLFPPSSEELQANKATLVCLISDFYPGAVTVAWKADSSPVKAGVETTTPSKQSNNKYAASSYLSLTPEQWKSHRSYSCQVTHEGSTVEKTVAPAECS
no binding: [1] | [2] | [3] | [4] | [5] | [6] | [7]

B3: anti-B7-H3 antibody B5 (full IgG form) (antibody)
heavy: EVQLLESGGGLVQPGGSLRLSCAASGFTFSDYAMSWVRQAPGKGLEWVSSISSGSGSIYYADSVKGRFTISRDNSKNTLYLQMNSLRAEDTAVYYCAKNLIPLDYWGQGTLVTVSS[human IgG1 constant region not shown]
light: QSVLTQPPSASGTPGQRVTISCSGSSSNIGSNAVSWYQQLPGTAPKLLIYYNSHRPSGVPDRFSGSKSGTSASLAISGLRSEDEADYYCGSWDASLNAYVFGGGTKLTVLGQPKAAPSVTLFPPSSEELQANKATLVCLISDFYPGAVTVAWKADSSPVKAGVETTTPSKQSNNKYAASSYLSLTPEQWKSHRSYSCQVTHEGSTVEKTVAPAECS
no binding: [1] | [2] | [3] | [4] | [5] | [6] | [7]

B4: anti-B7-H3 antibody C4I (full IgG form) (antibody)
heavy: EVQLLESGGGLVQPGGSLRLSCAASGFTFSGYYMSWVRQAPGKGLEWVSLISPSSGSIYYADSVKGRFTISRDNSKNTLYLQMNSLRAEDTAVYYCAKGLTKFDYWGQGTLVTVSS[human IgG1 constant region not shown]
light: QSVLTQPPSASGTPGQRVTISCTGSSSNIGSNDVSWYQQLPGTAPKLLIYANSHRPSGVPDRFSGSKSGTSASLAISGLRSEDEADYYCGSWDDSLSGYVFGGGTKLTVLGQPKAAPSVTLFPPSSEELQANKATLVCLISDFYPGAVTVAWKADSSPVKAGVETTTPSKQSNNKYAASSYLSLTPEQWKSHRSYSCQVTHEGSTVEKTVAPAECS
notes: also called C41
no binding: [1] | [2] | [3] | [4] | [5] | [6] | [7]

B5: anti-B7-H3 antibody F6V (full IgG form) (antibody)
heavy: EVQLLESGGGLVQPGGSLRLSCAASGFTFSDYAMSWVRQAPGKGLEWVSGISPGGSNTYYADSVKGRFTISRDNSKNTLYLQMNSLRAEDTAVYYCAKDAWIARLLLFDYWGQGTLVTVSS[human IgG1 constant region not shown]
light: QSVLTQPPSASGTPGQRVTISCSGSSSNIGSNAVTWYQQLPGTAPKLLIYYNNKRPSGVPDRFSGSKSGTSASLAISGLRSEDEADYYCGTWDDSLSGYVFGGGTKLTVLGQPKAAPSVTLFPPSSEELQANKATLVCLISDFYPGAVTVAWKADSSPVKAGVETTTPSKQSNNKYAASSYLSLTPEQWKSHRSYSCQVTHEGSTVEKTVAPAECS
no binding: [1] | [2] | [3] | [4] | [5] | [6] | [7]
